Measured values as given in paper PMC2982839.
Results are given in words; binding and its absence hold for the method and conditions named. Binding seen in cells or lysates may run through a third protein. Some entries that bind do so weakly or less than the wild type. For some assays here: Where a sequence is shown, tags or fusion partners need not be part of it.

Amino acid sequences for entries named in this document (tags omitted).
UniProt Q6WKZ8: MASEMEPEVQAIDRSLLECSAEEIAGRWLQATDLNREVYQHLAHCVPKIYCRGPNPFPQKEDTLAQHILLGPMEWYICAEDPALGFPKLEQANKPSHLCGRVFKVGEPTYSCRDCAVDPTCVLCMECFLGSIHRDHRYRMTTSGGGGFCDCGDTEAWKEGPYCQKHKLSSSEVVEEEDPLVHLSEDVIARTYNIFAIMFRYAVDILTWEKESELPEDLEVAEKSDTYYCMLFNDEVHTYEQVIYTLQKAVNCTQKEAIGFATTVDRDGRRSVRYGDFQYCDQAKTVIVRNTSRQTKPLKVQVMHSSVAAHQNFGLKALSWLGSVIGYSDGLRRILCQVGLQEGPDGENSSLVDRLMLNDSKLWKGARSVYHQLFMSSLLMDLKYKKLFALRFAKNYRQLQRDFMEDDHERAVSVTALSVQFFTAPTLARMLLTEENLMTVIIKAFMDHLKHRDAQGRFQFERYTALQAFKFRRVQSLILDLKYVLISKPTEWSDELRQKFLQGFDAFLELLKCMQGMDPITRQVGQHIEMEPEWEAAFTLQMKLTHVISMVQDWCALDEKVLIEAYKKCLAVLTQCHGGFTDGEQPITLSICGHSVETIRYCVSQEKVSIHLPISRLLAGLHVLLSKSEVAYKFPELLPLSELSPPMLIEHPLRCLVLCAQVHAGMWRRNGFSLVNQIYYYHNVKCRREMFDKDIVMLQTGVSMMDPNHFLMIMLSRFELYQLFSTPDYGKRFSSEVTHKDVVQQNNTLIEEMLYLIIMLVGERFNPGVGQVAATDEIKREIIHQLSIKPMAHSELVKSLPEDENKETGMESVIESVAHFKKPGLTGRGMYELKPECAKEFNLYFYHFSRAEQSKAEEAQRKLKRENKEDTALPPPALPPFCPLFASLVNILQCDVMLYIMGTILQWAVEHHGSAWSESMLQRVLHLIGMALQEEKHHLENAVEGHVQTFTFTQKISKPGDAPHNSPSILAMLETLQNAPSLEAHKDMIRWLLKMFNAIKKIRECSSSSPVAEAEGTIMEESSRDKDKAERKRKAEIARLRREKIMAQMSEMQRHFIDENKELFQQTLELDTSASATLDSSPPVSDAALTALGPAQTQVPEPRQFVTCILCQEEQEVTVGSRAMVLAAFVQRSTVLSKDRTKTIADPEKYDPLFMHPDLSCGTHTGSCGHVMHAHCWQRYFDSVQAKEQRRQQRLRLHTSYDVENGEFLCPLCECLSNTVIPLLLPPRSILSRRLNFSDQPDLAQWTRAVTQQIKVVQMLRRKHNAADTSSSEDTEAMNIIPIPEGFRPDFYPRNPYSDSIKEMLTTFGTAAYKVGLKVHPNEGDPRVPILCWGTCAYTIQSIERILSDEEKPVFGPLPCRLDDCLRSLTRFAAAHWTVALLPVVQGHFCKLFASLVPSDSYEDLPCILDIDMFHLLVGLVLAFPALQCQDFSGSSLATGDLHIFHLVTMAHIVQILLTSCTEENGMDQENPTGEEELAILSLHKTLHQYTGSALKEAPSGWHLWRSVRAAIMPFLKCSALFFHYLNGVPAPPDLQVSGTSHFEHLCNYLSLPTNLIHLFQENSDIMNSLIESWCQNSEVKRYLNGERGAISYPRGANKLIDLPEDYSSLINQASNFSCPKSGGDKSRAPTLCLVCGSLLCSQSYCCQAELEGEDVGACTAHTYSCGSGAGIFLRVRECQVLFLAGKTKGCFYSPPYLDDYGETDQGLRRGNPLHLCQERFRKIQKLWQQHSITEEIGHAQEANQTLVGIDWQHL

Columns and labels:
[1] = molecular target: T1, Tex19.1 (mouse (endogenous in testis)) (UniProt Q99MV2); assay: co-IP; IP from testicular extracts of 20-day-old wild type and Tex19.1-/- mice with anti-Tex19.1 or anti-Ubr2 antibody, then western blot
T1 sequence: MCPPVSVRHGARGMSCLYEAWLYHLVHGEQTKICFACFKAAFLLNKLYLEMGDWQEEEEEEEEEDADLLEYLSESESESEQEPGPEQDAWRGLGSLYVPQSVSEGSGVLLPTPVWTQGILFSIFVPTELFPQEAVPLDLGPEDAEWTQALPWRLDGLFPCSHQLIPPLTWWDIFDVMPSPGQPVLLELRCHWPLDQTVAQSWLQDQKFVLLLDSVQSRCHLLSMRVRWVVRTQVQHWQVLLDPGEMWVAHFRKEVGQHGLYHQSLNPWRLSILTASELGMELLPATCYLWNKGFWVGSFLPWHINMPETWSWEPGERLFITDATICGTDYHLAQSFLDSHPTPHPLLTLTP

C2G-Tex19.1 (mouse) = molecular target: T2, C2G-Tex19.1 (mouse) (UniProt Q99MV2); assay: co-IP; co-transfection of NIH3T3 cells; IP and western blot with anti-V5, anti-Tex19.1 and anti-Ubr2 antibodies
T2 sequence: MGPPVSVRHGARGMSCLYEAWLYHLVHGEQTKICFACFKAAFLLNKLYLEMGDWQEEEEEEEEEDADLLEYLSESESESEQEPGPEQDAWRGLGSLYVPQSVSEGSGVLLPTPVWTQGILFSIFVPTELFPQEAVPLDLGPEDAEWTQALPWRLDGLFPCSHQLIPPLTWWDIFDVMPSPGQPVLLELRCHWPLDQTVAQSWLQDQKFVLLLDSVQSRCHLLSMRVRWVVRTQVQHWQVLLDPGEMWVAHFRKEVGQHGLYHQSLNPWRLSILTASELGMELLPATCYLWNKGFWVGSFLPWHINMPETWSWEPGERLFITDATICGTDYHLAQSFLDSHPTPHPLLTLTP

[2] = molecular target: T3, V5-tagged Tex19.2 (mouse) (UniProt Q9D5S1); assay: as above
T3 sequence: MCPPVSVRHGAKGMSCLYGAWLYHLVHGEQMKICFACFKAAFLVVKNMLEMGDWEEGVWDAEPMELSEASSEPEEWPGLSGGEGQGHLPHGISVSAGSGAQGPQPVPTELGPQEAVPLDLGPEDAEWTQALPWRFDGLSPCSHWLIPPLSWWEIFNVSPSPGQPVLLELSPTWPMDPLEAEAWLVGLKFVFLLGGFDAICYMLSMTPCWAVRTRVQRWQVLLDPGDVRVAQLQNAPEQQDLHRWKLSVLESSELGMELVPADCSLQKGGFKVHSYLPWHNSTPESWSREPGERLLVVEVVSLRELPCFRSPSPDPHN

C2V-Tex19.1 (mouse) = molecular target: T4, C2V-Tex19.1 (mouse) (UniProt Q99MV2); assay: as above
T4 sequence: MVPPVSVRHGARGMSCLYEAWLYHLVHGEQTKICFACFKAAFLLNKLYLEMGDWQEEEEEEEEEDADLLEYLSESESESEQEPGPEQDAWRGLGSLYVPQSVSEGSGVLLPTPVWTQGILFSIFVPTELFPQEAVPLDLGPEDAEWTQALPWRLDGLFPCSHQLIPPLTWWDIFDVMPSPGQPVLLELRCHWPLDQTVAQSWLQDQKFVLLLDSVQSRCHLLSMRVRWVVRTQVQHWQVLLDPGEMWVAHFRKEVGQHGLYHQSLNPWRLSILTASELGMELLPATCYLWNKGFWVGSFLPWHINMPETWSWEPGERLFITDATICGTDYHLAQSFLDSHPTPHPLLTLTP

Tex19.1N (mouse) = molecular target: T5, Tex19.1N (mouse) (UniProt Q99MV2); assay: as above
T5 sequence: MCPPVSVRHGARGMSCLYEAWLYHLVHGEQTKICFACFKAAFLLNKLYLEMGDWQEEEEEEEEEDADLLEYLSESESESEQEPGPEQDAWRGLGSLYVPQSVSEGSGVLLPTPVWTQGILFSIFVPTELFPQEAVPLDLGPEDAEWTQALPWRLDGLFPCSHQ

Tex19.1C (mouse) = molecular target: T6, Tex19.1C (mouse) (UniProt Q99MV2); assay: as above
T6 sequence: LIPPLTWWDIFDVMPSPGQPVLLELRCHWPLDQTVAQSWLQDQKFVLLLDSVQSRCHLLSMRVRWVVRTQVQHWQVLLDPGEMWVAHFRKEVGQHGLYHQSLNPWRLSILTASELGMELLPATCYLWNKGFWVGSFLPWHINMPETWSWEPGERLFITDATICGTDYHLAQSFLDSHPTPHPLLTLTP

[3] = molecular target: T7, V5-tagged Tex19.1 (wild type) (mouse) (UniProt Q99MV2); assay: as above
T7 sequence: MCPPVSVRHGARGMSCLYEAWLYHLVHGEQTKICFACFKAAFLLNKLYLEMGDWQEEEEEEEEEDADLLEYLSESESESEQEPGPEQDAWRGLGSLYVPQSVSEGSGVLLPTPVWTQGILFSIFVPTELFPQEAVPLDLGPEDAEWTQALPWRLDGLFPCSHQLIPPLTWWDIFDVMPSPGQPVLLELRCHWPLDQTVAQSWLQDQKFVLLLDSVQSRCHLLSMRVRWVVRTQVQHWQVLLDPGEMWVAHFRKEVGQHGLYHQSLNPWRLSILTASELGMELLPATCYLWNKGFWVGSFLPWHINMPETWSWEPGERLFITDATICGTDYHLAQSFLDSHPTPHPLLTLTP

[4] = molecular target: Ubr2 (mouse (endogenous in testis)) (UniProt Q6WKZ8); assay: co-IP; IP from testicular extracts of 20-day-old wild type and Tex19.1-/- mice with anti-Tex19.1 or anti-Ubr2 antibody, then western blot

Molecule: Ubr2 (from UniProt Q6WKZ8 1-1755)
- binding [1]: binds

Molecule: Ubr2 (untagged, transfected) (from UniProt Q6WKZ8 1-1755)
- binding (C2G-Tex19.1 (mouse)): binds
- binding [2]: binds
- binding (C2V-Tex19.1 (mouse)): binds
- binding (Tex19.1N (mouse)): binds
- binding (Tex19.1C (mouse)): no binding
- binding [3]: binds

B1: Tex19.1 (protein, UniProt Q99MV2 1-351)
chain: MCPPVSVRHGARGMSCLYEAWLYHLVHGEQTKICFACFKAAFLLNKLYLEMGDWQEEEEEEEEEDADLLEYLSESESESEQEPGPEQDAWRGLGSLYVPQSVSEGSGVLLPTPVWTQGILFSIFVPTELFPQEAVPLDLGPEDAEWTQALPWRLDGLFPCSHQLIPPLTWWDIFDVMPSPGQPVLLELRCHWPLDQTVAQSWLQDQKFVLLLDSVQSRCHLLSMRVRWVVRTQVQHWQVLLDPGEMWVAHFRKEVGQHGLYHQSLNPWRLSILTASELGMELLPATCYLWNKGFWVGSFLPWHINMPETWSWEPGERLFITDATICGTDYHLAQSFLDSHPTPHPLLTLTP
- binding [4]: binds
